According to PubChem BioAssay AID504333 (National Center for Advancing Translational Sciences (NCATS), 2011):
The campaign covered roughly 360,000 compounds. About 16,000 (4.4%) were called active. Inconclusive means that the source gave no clear call. Such entries were picked first, then a sample of the others. Calls come from the whole dose curve; as a rule, active = well fitted inhibition curve with a large enough effect; inconclusive = small, poorly fitted or top-dose-only effect; inactive = no such curve, though single readings can be large or run the other way. A potency beside an inconclusive call is a rough fit, not a confirmed value. Where a SMILES comes first, the peptide text is derived from it. The star is where a group is joined. OBn = c1ccc(CO*)cc1

molecular target: Bromodomain adjacent to zinc finger domain protein 2B (Homo sapiens) (UniProt Q9UIF8); experiment: qHTS Assay for Inhibitors of BAZ2B; conditions: AlphaScreen BAZ2B-H3K14Ac peptide displacement; activity change, negative = inhibition: at 114 µM (top of the series); note: nearly all actives have a fitted effect of over 60% in size
Sequence of UniProt Q9UIF8 (Q9UIF8 whole entry, looked up, the tested form may be a part): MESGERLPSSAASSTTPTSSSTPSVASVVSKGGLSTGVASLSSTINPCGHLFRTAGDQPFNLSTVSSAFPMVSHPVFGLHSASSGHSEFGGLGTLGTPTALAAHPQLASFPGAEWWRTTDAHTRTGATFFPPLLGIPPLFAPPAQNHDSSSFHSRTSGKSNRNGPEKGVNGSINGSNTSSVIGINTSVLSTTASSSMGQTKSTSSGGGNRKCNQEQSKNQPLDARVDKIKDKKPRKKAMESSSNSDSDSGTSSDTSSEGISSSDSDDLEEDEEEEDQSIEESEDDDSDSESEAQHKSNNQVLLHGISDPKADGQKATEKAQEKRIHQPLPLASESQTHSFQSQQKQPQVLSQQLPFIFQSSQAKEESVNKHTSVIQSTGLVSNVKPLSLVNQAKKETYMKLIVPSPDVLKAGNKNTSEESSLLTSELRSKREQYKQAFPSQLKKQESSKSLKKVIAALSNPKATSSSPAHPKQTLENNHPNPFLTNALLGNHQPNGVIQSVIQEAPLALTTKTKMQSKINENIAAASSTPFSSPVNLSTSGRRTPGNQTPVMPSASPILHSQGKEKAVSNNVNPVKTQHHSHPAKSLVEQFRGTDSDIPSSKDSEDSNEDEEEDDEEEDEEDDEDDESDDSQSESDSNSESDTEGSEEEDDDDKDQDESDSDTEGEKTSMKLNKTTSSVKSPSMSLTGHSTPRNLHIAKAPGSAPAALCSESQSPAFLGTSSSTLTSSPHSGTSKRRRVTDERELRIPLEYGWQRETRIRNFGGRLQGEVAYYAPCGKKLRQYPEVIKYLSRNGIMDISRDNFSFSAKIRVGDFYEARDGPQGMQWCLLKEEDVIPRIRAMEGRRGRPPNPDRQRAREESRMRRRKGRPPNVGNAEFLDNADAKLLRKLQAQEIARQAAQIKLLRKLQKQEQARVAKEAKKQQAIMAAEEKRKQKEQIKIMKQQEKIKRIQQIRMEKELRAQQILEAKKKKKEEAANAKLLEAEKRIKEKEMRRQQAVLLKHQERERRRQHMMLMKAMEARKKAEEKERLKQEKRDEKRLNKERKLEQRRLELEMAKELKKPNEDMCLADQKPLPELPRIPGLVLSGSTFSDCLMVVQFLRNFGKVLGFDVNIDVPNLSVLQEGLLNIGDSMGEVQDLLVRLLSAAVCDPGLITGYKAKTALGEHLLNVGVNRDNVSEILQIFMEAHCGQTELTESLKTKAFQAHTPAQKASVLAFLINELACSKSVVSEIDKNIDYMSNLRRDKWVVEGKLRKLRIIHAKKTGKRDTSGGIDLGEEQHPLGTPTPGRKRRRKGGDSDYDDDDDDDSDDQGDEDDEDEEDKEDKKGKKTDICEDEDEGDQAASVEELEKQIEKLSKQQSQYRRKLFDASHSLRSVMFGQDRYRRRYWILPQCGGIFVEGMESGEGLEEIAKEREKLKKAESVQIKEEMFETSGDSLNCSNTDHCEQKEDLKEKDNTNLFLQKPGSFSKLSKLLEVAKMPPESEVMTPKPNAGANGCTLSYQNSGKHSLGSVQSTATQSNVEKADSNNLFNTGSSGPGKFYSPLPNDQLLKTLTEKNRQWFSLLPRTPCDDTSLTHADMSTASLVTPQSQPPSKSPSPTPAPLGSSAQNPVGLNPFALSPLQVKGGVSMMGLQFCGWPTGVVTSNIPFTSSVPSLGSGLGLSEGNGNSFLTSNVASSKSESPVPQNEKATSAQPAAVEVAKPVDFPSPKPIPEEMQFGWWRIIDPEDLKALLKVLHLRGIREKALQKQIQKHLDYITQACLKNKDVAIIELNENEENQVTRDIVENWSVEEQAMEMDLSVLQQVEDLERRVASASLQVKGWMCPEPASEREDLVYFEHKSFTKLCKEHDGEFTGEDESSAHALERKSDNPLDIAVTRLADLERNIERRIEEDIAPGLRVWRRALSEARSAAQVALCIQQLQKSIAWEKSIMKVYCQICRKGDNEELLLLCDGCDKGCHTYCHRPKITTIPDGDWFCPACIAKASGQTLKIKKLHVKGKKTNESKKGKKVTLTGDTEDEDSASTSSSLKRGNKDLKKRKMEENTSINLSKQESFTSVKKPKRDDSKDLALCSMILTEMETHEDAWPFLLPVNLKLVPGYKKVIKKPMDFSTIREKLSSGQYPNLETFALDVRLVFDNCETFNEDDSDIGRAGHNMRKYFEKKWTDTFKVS
In short: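 Compounds, titrated to a top concentration of 110 uM, were incubated 30 min at room temperature with preformed BAZ2B/acetyl-K14 H3 peptide complex (50 nM each). Proximity signal was measured by AlphaScreen after 20 min with beads.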
% is set by controls: 0 for no effect and ±100 for the full control effect; potency is the fitted concentration of half-maximal effect; tags give direction and shape of the fitted curve.

| SMILES | activity change, negative = inhibition | Potency |
| --- | --- | --- |
| CCCn1cc(S(=O)(=O)c2ccccc2)c(=O)c2cc(F)c(N3CCCC(C)C3)cc21 (configuration not stated) | inactive: 1.54% | – |
| Cc1csc(/C(=N\O)c2csc(C)n2)n1 | – | inconclusive: 89.1 µM [inhibitor, single point] |
| COc1ccc(-c2cc(C(=O)NNC(=S)NC(=O)c3c(-c4ccccc4)noc3C)[nH]n2)cc1 | inactive: -20.1% | – |
| CC1=NN(Cc2c(C)nn(Cc3ccccc3)c2C)C(C)(C)C1 | – | inconclusive: 50.1 µM [inhibitor, partial curve] |
| Cc1ccc(CN2C(=O)N/C(=C\c3cccn3-c3cccc(C(=O)O)c3)C2=O)cc1 | – | active: 35.5 µM |
| CCn1c(NC(=S)Nc2ccccc2)nc2ccccc21 | – | active: 5.62 µM |
| CCOC(=O)C1CCCN(c2cc(C)nc3c(-c4ccccc4OC)c(C)nn23)C1 (configuration not stated) | inactive: 7.57% | – |
| Cc1c(C)n(C)c2ccc(C(=O)NCCCN3CCCCC3C)cc12 (configuration not stated) | – | inconclusive: 56.2 µM [inhibitor, partial curve] |
| CNC(=O)c1sccc1SCc1c(Cl)cccc1Cl | inactive: -3.13% | – |
| CCCn1nnnc1NC(=O)c1cccs1 | – | inconclusive: 39.8 µM [inhibitor, single point] |
| O=C(Nc1nc2ccccc2s1)c1ccc(F)cc1 | – | inconclusive: 89.1 µM [inhibitor, single point] |
| N=c1c2c(-c3ccccc3)c(-c3ccccc3)n(Cc3ccco3)c2ncn1CCCn1ccnc1 | – | inconclusive: 44.7 µM [inhibitor, partial curve] |
| COc1ccc(C2=C(C)C(=NCCCN3CCN(c4cc(C)ccc4C)CC3)NS2(=O)=O)cc1 | inactive: -10.3% | – |
| C=CCNc1nnc(SC2CC(=O)N(c3ccc(OCCC)cc3)C2=O)s1 (configuration not stated) | inactive: -4.38% | – |
| CCNC(C(=O)c1c[nH]c2c(CC)cccc12)c1ccccc1 (configuration not stated) | inactive: -23.6% | – |
| COc1cccc(Cn2c(CNC(=O)Cc3cccc(C)c3)nc3cccnc32)c1 | inactive: -1.28% | – |
| CCC(=O)N1CCN(c2c(Cl)cccc2[N+](=O)[O-])CC1 | inactive: -5.73% | – |
| COc1ccc(-c2nc(CSc3nncn4c3cc3occc34)c(C)o2)cc1 | – | inconclusive: 89.1 µM [inhibitor, single point] |
| O=C(O)CNCC1COc2ccccc2O1 (configuration not stated) | – | inconclusive: 89.1 µM [inhibitor, single point] |
| COc1ccc(OC)c(C2C3=C(N=C4SCC(=O)N42)c2ccccc2CC3)c1 (configuration not stated) | – | active: 50.1 µM |
| COc1cc(C(=O)NS(=O)(=O)c2ccccc2C)ccc1Cc1cn(C)c2ccc(NC(=O)OC3CCCC3)cc12 | – | active: 50.1 µM |
| CC(=O)N1c2ccc(S(=O)(=O)N3CCC(C(=O)Nc4cccc(F)c4)CC3)cc2CC1C (configuration not stated) | inactive: -15.6% | – |
| COc1ccc(/C=C2\C(=O)NC(=S)N2C(=O)c2ccc(F)cc2)cc1 | – | active: 56.2 µM |
| COc1ccccc1N1CCN(S(=O)(=O)Cc2ccccc2Cl)CC1 | – | inconclusive: 100 µM [inhibitor, single point] |
| O=C(c1cccc(Cl)c1)N1CCN(CCc2ccncc2)CC1 | inactive: -24.8% | – |
| COc1cc(Cl)c(C)cc1NC(=O)c1cn(C2CCCC2)c(=O)c2c1c1ccccc1n2C | inactive: -9.14% | – |

| SMILES | activity change, negative = inhibition | Potency |
| --- | --- | --- |
| COc1ccc(Cl)cc1NC(=O)CN1CCN(Cc2ccccc2)CC1 | inactive: 0.368% | – |
| O=C(COc1ccccc1[N+](=O)[O-])Nc1cccc(S(=O)(=O)NC2=NCCCCC2)c1 | – | inconclusive: 50.1 µM [inhibitor, partial curve] |
| Cc1ccc(CN2CCSc3ccc(C(=O)NCc4cccnc4)cc32)cc1 | – | inconclusive: 31.6 µM [inhibitor, full curve] |
| N#Cc1c(-c2ccc3c(c2)OCO3)csc1N | – | inconclusive: 44.7 µM [inhibitor, partial curve] |
| Cc1cccc(N2CCN(S(=O)(=O)c3cccc4nonc34)CC2)c1C | – | inconclusive: 31.6 µM [inhibitor, full curve] |
| Cc1cc(C)c2nc(NNC(=O)c3cc(=O)c4ccccc4o3)sc2c1 | – | active: 31.6 µM |
| CCOc1ccc(NC(=O)c2c(NC(=O)CN3CCCC3)sc3c2CCC3)cc1 | – | inconclusive: 28.2 µM [inhibitor, full curve, poor fit] |
| CCCCNC(=O)c1nn2c(C(F)(F)F)cc(-c3ccc(OC)cc3)nc2c1Br | inactive: 0.457% | – |
| CCC(C(=O)NCc1ccc(F)cc1)n1nc(C)n2c(cc3occc32)c1=O (configuration not stated) | inactive: -9.87% | – |
| O=C1NC(=S)N/C1=C/c1ccc(-c2c(Br)cc([N+](=O)[O-])cc2Br)o1 | – | inconclusive: 56.2 µM [inhibitor, partial curve] |
| CCN(CC)c1ccc(NC(=O)c2c(C)noc2C)cc1 | – | inconclusive: 79.4 µM [inhibitor, single point] |
| COc1ccc(CCNC(=O)c2ccc(S(=O)(=O)N3CCCCC3)cc2)cc1 | inactive: 4.96% | – |
| COc1ccc(N2CCN(CCNC(=O)Nc3ccc([N+](=O)[O-])cc3OC)CC2)cc1 | – | inconclusive: 50.1 µM [inhibitor, partial curve] |
| CCCCCC(=O)Nc1ccc(-c2csc(N)n2)cc1 | – | inconclusive: 79.4 µM [inhibitor, single point] |
| CC(=O)Nc1ccc(S(=O)(=O)Nc2cccc(-n3c(C)nc4ccccc4c3=O)c2)cc1 | inactive: 8.48% | – |
| O=C(NCCc1c[nH]c2ccccc12)C(=O)NCC(c1cccnc1)N1CCN(c2ccccc2)CC1 (configuration not stated) | – | inconclusive: 44.7 µM [inhibitor, partial curve] |
| COc1cc(NS(=O)(=O)c2ccc(NC(=O)/C(=C/c3ccccc3Cl)NC(=O)c3ccccc3)cc2)nc(OC)n1 | – | inconclusive: 79.4 µM [inhibitor, single point] |
| CCOC(=O)C1CCCN(CC(=O)/C=C2/N(C)c3ccccc3C2(C)C)C1 (configuration not stated) | – | inconclusive: 89.1 µM [inhibitor, single point] |
| COc1ccccc1NCC(O)COc1ccc(C(C)(C)C)cc1 (configuration not stated) | – | active: 22.4 µM |
| COc1cc(CN2CCN(c3cccc(C)c3C)CC2)cc([N+](=O)[O-])c1O | – | active: 50.1 µM |
| N#CC(C#N)=C1C=CC=CN1/C(=C\c1ccccc1Cl)C(=O)c1ccccc1 | – | inconclusive: 28.2 µM [inhibitor, full curve] |
| CCN(CC)CCNC(=O)c1ccc2c(c1)NC(=O)c1ccccc1S2 | inactive: 4.77% | – |
| O=c1[nH][nH]c2cc(=O)n(-c3ccc(Cl)cc3)nc12 | – | active: 50.1 µM |
| O=C(CCn1cccc1)NCCc1ccc(Cl)cc1 | – | inconclusive: 79.4 µM [inhibitor, single point] |
| Oc1c(C(c2ccc(Cl)cc2)N2CCC3(CC2)OCCO3)sc2nc(-c3ccco3)nn12 (configuration not stated) | inactive: -23.8% | – |
| N#C/C(C(N)=O)=c1/ccc2c(c1)N1C3=C(CCCC3)CC3CCCCC31N=2 (configuration not stated) | – | active: 3.55 µM |

| SMILES | activity change, negative = inhibition | Potency |
| --- | --- | --- |
| COc1ccc(CN2CCN(Cc3ccco3)CC2)cc1 | – | active: 20 µM |
| O=[N+]([O-])c1cc2c(cc1Br)CCN2 | – | inconclusive: 44.7 µM [inhibitor, partial curve] |
| COC(=O)[C@H](Cc1ccccc1)NC(=O)[C@@H](N)CC(=O)OCc1ccccc1 (H-Asp(OBn)-Phe-OMe) | – | inconclusive: 89.1 µM [inhibitor, single point] |
| c1cc2cn[nH]c2cc1NC1CCCCCC1 | inconclusive: -64.2% [inhibitor] | – |
| CCOc1ccc(-n2c(C)c(C(=O)OC)c3cc(O)ccc32)cc1 | – | inconclusive: 44.7 µM [inhibitor, partial curve] |
| C[C@H]1CCC(=O)N([C@H](CN=[N+]=[N-])Cc2ccccc2)CC1 | – | inconclusive: 79.4 µM [inhibitor, single point] |
| CCOc1ccc(CCNC(=O)c2cccc(C#N)c2)cc1OCC | inactive: -9.62% | – |
| N=c1c(C(=O)NCc2ccco2)cc2c(=O)n3ccccc3nc2n1Cc1ccc(Cl)cc1 | inactive: -26.5% | – |
| COC(=O)CSC1=C(C#N)C(c2ccc(C(C)C)cc2)CC(=O)N1 (configuration not stated) | inactive: 8.3% | – |
| O=C(NNC(=O)C1C2C=CC(C2)C1C(=O)O)c1ccccc1 (configuration not stated) | inactive: -0.339% | – |
| CCCCN(CCCC)S(=O)(=O)c1ccc2oc(C(=O)NCc3ccc(C)cc3)c(C)c2c1 | inactive: 1.99% | – |
| CCCCN1C(=O)C(O)(c2c[nH]c3ccccc23)c2cc(Br)ccc21 (configuration not stated) | – | inconclusive: 44.7 µM [inhibitor, partial curve] |
| CCN(CC)c1ccc(NC(=O)COC(=O)c2ccc3ccccc3n2)cc1 | – | active: 50.1 µM |
| Cc1ccc(C(=O)N2CCN=C2SCc2ccc([N+](=O)[O-])cc2)cc1C | – | inconclusive: 50.1 µM [inhibitor, partial curve] |
| Cc1ccc(-c2nc(SCC(=O)N(C)C3CCS(=O)(=O)C3)[nH]c2-c2ccc(C)cc2)cc1 (configuration not stated) | – | active: 50.1 µM |
| CCOc1ccc(OCCSc2nc3ccccc3n2CC(=O)O)cc1 | – | inconclusive: 89.1 µM [inhibitor, single point] |
| O=c1[nH]c2cc(NCCO)c([N+](=O)[O-])cc2[nH]1 | – | inconclusive: 79.4 µM [inhibitor, partial curve] |
| Oc1ccccc1C1=Nc2nc3ccccc3n2C(c2ccccc2)C1 (configuration not stated) | – | inconclusive: 44.7 µM [inhibitor, partial curve] |
| Cc1[nH]c2ccc(C(=O)OC(C)C(=O)N(C)c3ccccc3)cc2c1C (configuration not stated) | – | active: 50.1 µM |
| Cc1c(C(=O)O)sc(=S)n1-c1ccccc1 | inactive: -9.23% | – |
| Fc1ccc(CNc2nc(-c3cccnc3)nc3ccccc23)cc1 | inactive: -0.672% | – |
| O=C(Nc1nn[nH]n1)c1ccc(S(=O)(=O)N2CCCCC2)cc1 | – | active: 70.8 µM |
| CCCCN(CCCC)CCNC(=O)Cn1nc(CC)n2c(cc3sc(C)cc32)c1=O | inactive: -5.16% | – |
| COc1ccc(Cc2nnc(Nc3ccccc3)s2)cc1Br | inactive: -3.27% | – |
| Cc1ccccc1Nc1c(-c2ccco2)nc2c(C)cccn12 | – | active: 25.1 µM |
